Test results: paper PMC7819943, “Rice protein-binding microarrays: a tool to detect cis-acting elements near promoter regions in rice”
The list shows a part of the results.

The sequences below were run against T1, OsWOX13 (Oryza sativa, UniProt Q5QMM3 1-267) (assay: protein-binding microarray (RPBM); PBS, 2% BSA, 51.3 ng/ul salmon testes DNA, 50 uM zinc acetate, 200 nM TF, 25 C, 1 h; high values mean tight binding). Settings: protein: recombinant; tags: N-terminal polyhistidine and DsRed monomer fusion (pET32a); label: CyDye5-dUTP incorporated in the synthesized complementary strand; 3' TTTTT single-stranded linker to array surface; dsDNA, one strand shown.
T1 sequence: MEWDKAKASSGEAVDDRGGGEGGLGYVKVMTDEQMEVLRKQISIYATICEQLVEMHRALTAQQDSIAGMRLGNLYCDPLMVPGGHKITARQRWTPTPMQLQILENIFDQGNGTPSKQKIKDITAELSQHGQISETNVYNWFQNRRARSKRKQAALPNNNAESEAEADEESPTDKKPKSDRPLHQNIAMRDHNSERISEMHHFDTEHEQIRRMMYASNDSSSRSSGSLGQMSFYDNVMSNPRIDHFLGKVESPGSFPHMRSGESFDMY
Method in brief: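 Transcription factors, each fused N-terminally to a polyhistidine tag and DsRed, were expressed in E. coli BL21-CodonPlus and purified on Ni–NTA. A custom Agilent array was made double-stranded by primer extension with Cy5-dUTP and blocked with 2% BSA. It was incubated with 200 nM protein in PBS, 2% BSA, salmon testes DNA and 50 µM zinc acetate at 25 °C for 1 h, then washed. The binding signal is per-feature fluorescence intensity (arbitrary units) read on an Axon 4000B scanner.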

Row | Sequence | binding signal
1 | GGTATAAAATGAAATCAATTGGAGGATTGAGCTTTTAAAACGGAGTCACCTAGTGCAG | 4110 fluorescence intensity (a.u.)
2 | TATCTAATTTATGATTTGATTACACCATTATATTTGTTACCGGAGTCACCTAGTGCAG | 46200 fluorescence intensity (a.u.)
3 | GGGTGATAATCAGCGGTGGTAAGATGATCGATGTCTCGACCGGAGTCACCTAGTGCAG | 3530 fluorescence intensity (a.u.)
4 | CGGTATTGGATTGATCAATCATCGTCACCTCGTTTTGCTTCGGAGTCACCTAGTGCAG | 45400 fluorescence intensity (a.u.)
5 | CAGATAATAATTAAGCCTAGTAACCCCATTTGCCGCACCACGGAGTCACCTAGTGCAG | 5720 fluorescence intensity (a.u.)
6 | AAATATATCATCAATTAATATTTGGCACACCTCTCTAACACGGAGTCACCTAGTGCAG | 8310 fluorescence intensity (a.u.)
7 | TATATATATATATATATATATATATATATATAAGGTTTGACGGAGTCACCTAGTGCAG | 8570 fluorescence intensity (a.u.)
8 | AATCGAATTAATTACTGCTCCGGTCAAACTTAAGCACGCACGGAGTCACCTAGTGCAG | 15900 fluorescence intensity (a.u.)
9 | CTCAAGCTTAATTAAGCTCGTAATCTCATATAACCTCTTTCGGAGTCACCTAGTGCAG | 57900 fluorescence intensity (a.u.)
10 | ACTACCAATGATTTACAGATATGGGAGTAGGGTCGACCCCCGGAGTCACCTAGTGCAG | 18200 fluorescence intensity (a.u.)
11 | TAGAGCATGTCAATTTGGTTAACGGCATAACTGCTAAGCTCGGAGTCACCTAGTGCAG | 6940 fluorescence intensity (a.u.)
12 | GATAGATAAGATTGATAACCACGATAACCAAATGGTTATTCGGAGTCACCTAGTGCAG | 21900 fluorescence intensity (a.u.)
13 | GGCTCAATCAAACAGCGGGAGTCTAGTTCGTCAATCTCCTCGGAGTCACCTAGTGCAG | 8680 fluorescence intensity (a.u.)
14 | ATAGATTGATCACAGAGGGAGCGCATACTTAACCAAAGTTCGGAGTCACCTAGTGCAG | 20000 fluorescence intensity (a.u.)
15 | AAAATCAATCAAAGTGTGACTGTGTGAGGCATGGCTGGAACGGAGTCACCTAGTGCAG | 22000 fluorescence intensity (a.u.)
16 | TAATAATACATGATAATTAATTAGCTACGTCCTTGTCAAACGGAGTCACCTAGTGCAG | 23200 fluorescence intensity (a.u.)
17 | ATATTGATGTTAATAAATCTAGATAGATATATATATATGTCGGAGTCACCTAGTGCAG | 4790 fluorescence intensity (a.u.)
18 | GTAAATTGTAAACCCTTTTATTTGAACAAGCCATAACCAACGGAGTCACCTAGTGCAG | 5420 fluorescence intensity (a.u.)
19 | GCACCTCTATTTAACACAAATTTTGACAATTTAACCCTTTCGGAGTCACCTAGTGCAG | 5630 fluorescence intensity (a.u.)
20 | ATATTTAATTATTATTTTAATAAAACTAATTTGGTAATGTCGGAGTCACCTAGTGCAG | 25700 fluorescence intensity (a.u.)
21 | AGCAACAATCATTCACCCAATCACCATGAAGAAGATGATCCGGAGTCACCTAGTGCAG | 17100 fluorescence intensity (a.u.)

Row | Sequence | binding signal
22 | ACTGATTAGCTTAAGCCTTTAATATTCTAAATGTTTAGATCGGAGTCACCTAGTGCAG | 37300 fluorescence intensity (a.u.)
23 | TTGTAATCTGTAGTGGGGATTGGTACAACTAATGGTTTTACGGAGTCACCTAGTGCAG | 3240 fluorescence intensity (a.u.)
24 | AACAATAATTGAAAACAGTATCGGATGAGCATATACAGTTCGGAGTCACCTAGTGCAG | 30500 fluorescence intensity (a.u.)
25 | TCAAGCTTCTGCAATTTAGTTGATTGATCGAATTAATCAGCGGAGTCACCTAGTGCAG | 24600 fluorescence intensity (a.u.)
26 | ATTATAGTTTTGTGATTAAATTGGTACTATACCTGTAGTTCGGAGTCACCTAGTGCAG | 10600 fluorescence intensity (a.u.)
27 | ATATATATATATATATATATAAAGTATATATATATGTGTGCGGAGTCACCTAGTGCAG | 9690 fluorescence intensity (a.u.)
28 | ATTAAACTTGATTGAGAACAAAACGAAAACGTTTTATAATCGGAGTCACCTAGTGCAG | 17000 fluorescence intensity (a.u.)
29 | TCGTTTGATTAACCAGGAATTCCTCGTCTGCCTTAATGGTCGGAGTCACCTAGTGCAG | 17500 fluorescence intensity (a.u.)
30 | GTACGGTTATAATTTTGTAAAATTTTAGTGGCACGGTTATCGGAGTCACCTAGTGCAG | 3710 fluorescence intensity (a.u.)
31 | CTTTTACATTTCAATAATATAATTCATAAATTTTAATGTTCGGAGTCACCTAGTGCAG | 3200 fluorescence intensity (a.u.)
32 | ACCAACACAAATAGACAAACTGAATTTTGGAAATTTGGGTCGGAGTCACCTAGTGCAG | 14000 fluorescence intensity (a.u.)
33 | AATATAATTATTTATACTTCATAGATTTCATGTTCTTCTGCGGAGTCACCTAGTGCAG | 24500 fluorescence intensity (a.u.)
34 | TCTTAATGAACATTACATAATAGTACAATTGTAAAGTCTTCGGAGTCACCTAGTGCAG | 3750 fluorescence intensity (a.u.)
35 | CATAACCATGACACGACATGATTATTTCGAGCAGAGGCTGCGGAGTCACCTAGTGCAG | 16400 fluorescence intensity (a.u.)
36 | CAATCCATAATTACATACATAACTAATTATATATATGGATCGGAGTCACCTAGTGCAG | 14800 fluorescence intensity (a.u.)
37 | TACCCACTCTAATTGGCCCTTTCAATTTTGGCCCATGAGCCGGAGTCACCTAGTGCAG | 15300 fluorescence intensity (a.u.)
38 | TAAATTGGCTATAGATGATTTGTAGTTAGTAGATGGCTATCGGAGTCACCTAGTGCAG | 38000 fluorescence intensity (a.u.)
39 | CACTGCAAATTAGATCTATATATAGTGAAACATTGTGAGACGGAGTCACCTAGTGCAG | 6780 fluorescence intensity (a.u.)
40 | GGAGGAGGAGGTGGTGGTGGTGGTGAAGCCGCGGAGGTGCCGGAGTCACCTAGTGCAG | 4940 fluorescence intensity (a.u.)
41 | CAACAAAATCAGCCAGATTAAACTGCACGAATTACGTACGCGGAGTCACCTAGTGCAG | 5950 fluorescence intensity (a.u.)
42 | ACAGCCAATCAGAATAGGACACATCACCCAGTCTAAAACTCGGAGTCACCTAGTGCAG | 16500 fluorescence intensity (a.u.)
